# According to PubChem BioAssay AID686978 (National Center for Advancing Translational Sciences (NCATS), 2013):
# Among all 420,000 compounds or so, about 64,000 (15%) were called active. The shares of active, inactive and inconclusive entries below differ from those in the screen. Calls come from the whole dose curve; as a rule, active = well fitted inhibition curve with a large enough effect; inconclusive = small, poorly fitted or top-dose-only effect; inactive = flat fitted curve, though single readings scatter. No potency is given beside an inconclusive call; the fits are too rough.
# Assay: qHTS for Inhibitors of human tyrosyl-DNA phosphodiesterase 1 (TDP1): qHTS in cells in absence of CPT; note: nearly all actives have a fitted effect of over 55% in size
# Settings: DT40 Tdp1-/- hTDP1 cells, no CPT, ATP luminescence, 48 h; series mostly up to 46.2 µM
# How it was run: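 Luminescent ATP content (CellTiter-Glo) served as the growth readout. Knockout chicken DT40 cells expressing human TDP1 were exposed to compounds without camptothecin for a minimum 48 hr at 37 °C.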
# Potency is the fitted concentration of half-maximal effect; tags give direction and shape of the fitted curve.
row,Structure (SMILES),Potency
1,O=C(CSc1ncnc2sccc12)N1CCN(C(=O)c2cccs2)CC1,"inconclusive [inhibitor, single point]"
